The other results are listed elsewhere or left out.
tested on: T1, Caupolican (Caup) homeodomain DNA-binding domain; assay: PBM E-score (8-mer, recovered from the published 9-mer minima) (E-score (dimensionless, -0.5 to 0.5)); Drosophila protein; higher = stronger relative binding preference, active = 0.31 or more
T1 sequence: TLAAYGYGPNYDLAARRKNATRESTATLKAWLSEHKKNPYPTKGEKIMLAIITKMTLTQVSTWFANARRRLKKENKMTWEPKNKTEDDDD
Procedure, shortened: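 Caup's homeodomain DNA-binding domain (residues 214-303) was produced by in vitro transcription and translation and applied at 100 nM to custom-designed protein binding microarrays. Each value is an enrichment score giving relative binding preference for a short DNA word; higher means stronger. Published 9-mer scores were the minimum of their two constituent 8-mer scores, and the 8-mer values were recovered from those minima. A cutoff of 0.31 marks candidate binding sequences.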

Sequence	PBM E-score
AGAAGTTA	inactive: 0.0385
AGGCCCGG	inactive: -0.28
CCCCCGAG	inactive: -0.352
AGCGTACA	inactive: 0.198
ATCATGGG	inactive: -0.0312
ACCAGCGT	≥ 0.0151
CCCAATCG	inactive: -0.166
GATGATAA	inactive: 0.0766
AACTGAGA	≥ 0.0727
ATTCAAGG	inactive: -0.00866
GGGCAACA	inactive: -0.045
CACAAGCA	inactive: 0.15
AAAAGGTG	inactive: 0.00768
ATACTAGG	inactive: 0.0747
ATCACGCG	inactive: -0.0103
AAGGGCCC	inactive: -0.216
CGCAACTC	inactive: -0.0116
GCGAGTCA	inactive: -0.0896
TAGCACCA	≥ -0.00149
ACCCAGGT	inactive: -0.155
AACAAAAA	inactive: 0.141
AGGTTAGG	inactive: -0.124
ACGGAAAT	≥ 0.119

Sequence	PBM E-score
GAACGCAA	inactive: 0.0319
ATCGTCGG	inactive: -0.0995
ACTCGTTC	inactive: 0.123
ACTGCGTC	inactive: -0.0966
CTTGCGAA	inactive: -0.0441
ATGCCGCC	inactive: -0.143
CTTGCATC	inactive: -0.0348
CCAGCGAC	inactive: -0.00733
AAAAGACC	inactive: -0.105
CATGCAAC	inactive: 0.179
AGTATAGG	inactive: -0.0204
CTAATAAC	inactive: 0.167
GTGCGTGA	inactive: 0.0161
AATGCGTA	inactive: 0.0947
ACTCTTTA	inactive: 0.0106
ACATCCTA	inactive: 0.253
CAAGGCTA	inactive: -0.079
CTCGCGCC	inactive: -0.248
AGCGACTA	≥ 0.0539
AAAGGTCC	inactive: -0.11
AGAGAGTG	inactive: -0.0311
ACCTTGGA	inactive: -0.00716
GCTTTTTA	inactive: -0.0388

Sequence	PBM E-score
ACTTATGA	inactive: 0.0775
CTGGATAA	inactive: -0.0558
ACGTGAGA	inactive: 0.00478
AGGCCCCC	inactive: -0.398
TAAGTCGA	inactive: 0.057
GTTCGATA	inactive: 0.093
AATCCCCG	inactive: -0.052
ATCCGGGC	inactive: -0.181
AATTAATT	inactive: 0.0753
AGGACGTG	inactive: -0.0199
GTTCTCGA	inactive: 0.0527
CTAGTGTC	inactive: 0.0923
AGTGACTC	inactive: -0.0228
CATACGCC	inactive: -0.0138
ACCACGCA	≥ 0.0198
AGTTCTAA	inactive: 0.0219
CCCCAATA	inactive: -0.179
AAACCATC	inactive: 0.0321
AACCGACG	inactive: -0.0763
CCGGAAGA	inactive: -0.11
AGTAAGGC	inactive: -0.0291
GAGTTGGC	inactive: -0.126
GTTCCAGA	inactive: -0.0409

Sequence	PBM E-score
ATTCAATC	inactive: 0.062
GGGCCAAA	inactive: -0.135
CGTTGATA	inactive: 0.0601
GCACATCA	inactive: 0.0977
AGGAGATG	inactive: 0.0724
TAGACTAA	inactive: -0.0471
CACTGTGG	inactive: -0.0303
ACGTACAG	inactive: 0.103
ACGACGCG	inactive: 0.0049
GCAGCAGC	inactive: -0.0927
ATGGTTCG	inactive: -0.0328
GGTCAATA	inactive: 0.154
GAAGGTCC	inactive: -0.184
ACACCTGG	inactive: 0.0205
ACGTTACC	inactive: 0.0329
TGGGTTAA	inactive: 0.0892
GTGTCACA	inactive: 0.29
CCAGGGAA	inactive: -0.187
CGATGGGA	inactive: -0.123
AGATAACT	inactive: 0.0653
ATTTGCCA	inactive: -0.0475
CATATGCC	inactive: -0.0694
TCTCACCA	inactive: -0.0261

Sequence	PBM E-score
GCGGATCA	inactive: -0.0749
ATGGTGTA	≥ 0.292
GGAGCACA	inactive: -0.0222
AGCGCTCC	inactive: -0.211
AAAATTTG	inactive: 0.0701
GGTGCGTA	inactive: -0.118
CAAAAATC	inactive: 0.0293
ATGCTAAA	inactive: 0.0404
AGCGTAAA	inactive: -0.00289
AACACGCG	inactive: 0.269
ACCGCAAT	inactive: -0.0384
CATCTTGC	inactive: 0.0649
CCACAGCA	inactive: 0.0235
ATGAAGTG	inactive: -0.0199
GTAACCGA	inactive: -0.00016
ATCAGTGC	inactive: 0.0637
CTGAGAGA	inactive: -0.117
GCCATGAC	inactive: -0.0484
GTAATTCA	inactive: 0.174
ATGTACGA	active: 0.395
